# Data published in PubChem BioAssay AID1347120 (National Center for Advancing Translational Sciences (NCATS), 2019).
# Screen size: about 390,000 compounds; about 930 (0.24%) were called active. The inconclusive results got no clear call from the source; some entries with a clear call stand among them for comparison. Calls follow the shape of the dose curve; as a rule, active = well fitted activation curve with a large enough effect; inconclusive = small, poorly fitted or top-dose-only effect; inactive = no such curve, though single readings can be large or run the other way. Potencies beside an inconclusive call are fits to weak or partial responses and may not hold up.
# Assay: qHTS for Suppressors of FUS Proteinopathy: Primary screen using FUS-linked yeast assay; also: nearly all actives have a fitted effect of over 55% in size;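 as to growth rescue (activation): plate controls were DMSO vehicle for no effect and reference control for full effect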
# Conditions: S. cerevisiae FUS-expressing, OD600, 24 h; Potency: growth rescue; growth rescue (activation): at 76.6 µM (top of the series)
# How it was run: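 Steps: raffinose overnight preculture; dilution to OD 0.005 in 2% galactose minimal medium; compound addition (concentration series); 24hr at 30C, 99% humidity; absorbance read at 600 nm.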
# Potency is read from the fitted curve at half-maximal effect; tags tell the direction and shape of the fitted curve.
SMILES,Potency,growth rescue (activation)
Cc1nc(-c2ccc(Cl)cc2)sc1C1(C)CC(c2ccc([N+](=O)[O-])cc2)=NO1 (stereo not drawn),"inconclusive: 22.4 µM [activator, partial curve, poor fit]",
Cc1cc(C)c(NS(=O)(=O)c2ccc(-c3cnc(C4CC4)o3)cc2)c(C)c1,,inactive: 36.3%
O=C(N/N=C/c1ccc(O)cc1)c1cccc(N/N=C/c2ccc(O)cc2)c1,"inconclusive: 7.94 µM [activator, partial curve]",
CC(C)(C)OC(=O)N1CCC(Cc2cc(-c3cccc(Br)c3)no2)(C(=O)O)CC1,"inconclusive: 35.5 µM [activator, single point]",
COc1ccc(C)cc1NC(=O)CCc1c(C)nn(-c2ccc(N3CCOCC3)nn2)c1C,"inconclusive: 20 µM [activator, single point]",
CC12CCC(C(=O)NNc3ccc([N+](=O)[O-])cc3)(OC1=O)C2(C)C (stereo not drawn),,inactive: 0.61%
CCOc1cc(C2C3=C(CC(C)(C)CC3=O)N(CCCOC)C3=C2C(=O)CC(C)(C)C3)ccc1O,"inconclusive: 31.6 µM [activator, partial curve]",
Cc1ccc(N(C(=O)c2snc(C(N)=O)c2N)C(C(=O)NCc2ccccc2)c2ccncc2)c(C)c1 (stereo not drawn),"inconclusive: 22.4 µM [activator, partial curve]",
CCN(CC)CCN(C(=O)c1ccc(S(=O)(=O)N(C)C2CCCCC2)cc1)c1nc2c(C)cccc2s1,"inconclusive: 31.6 µM [activator, single point]",
C#CCOCCOCCOCCNc1nc(N2CCN(C(=O)[C@H]([C@@H](C)CC)n3cc([C@@H](N)Cc4ccc(O)cc4)nn3)CC2)nc(N2CCN(C(=O)[C@H](Cc3ccc(O)cc3)n3cc([C@@H](N)C(C)CC)nn3)CC2)n1 (stereo partly drawn),"inconclusive: 2.51 µM [activator, full curve]",
CCCCCCCCN1C(=O)[C@H](CC(=O)N2CCCCC2)C[C@@]2(C(=O)OCC)CCCC=C12,"inconclusive: 15.8 µM [activator, partial curve, poor fit]",
CC1(C)CC2(CCCN3C(=O)CSC32)CCS1 (stereo not drawn),,inactive: -9.97%
O=c1c(-c2nnc(SCc3ccc(Cl)cc3Cl)o2)cccn1Cc1ccccc1,,inactive: 43.6%
CCCCNC(=O)N1CCC(c2nc3ccc(Cl)cc3[nH]2)CC1,,inactive: 16.4%
COc1ccc(CN(C(=O)Nc2cccc(Cl)c2)c2ccccn2)cc1OC,"inconclusive: 28.2 µM [activator, single point]",
CC[C@]12c3[nH]c4ccc(Cl)cc4c3CCN1C(=O)[C@@H](CC(=O)NC/C=C(\C)CCC=C(C)C)C[C@@H]2C(=O)N1CCN(C(=O)c2ccco2)CC1,"inconclusive: 14.1 µM [activator, partial curve, poor fit]",
Cc1cccc(N2CCN(C(=O)c3ccc(CS(=O)c4cccc(Cl)c4)o3)CC2)c1C (stereo not drawn),"inconclusive: 50.1 µM [activator, single point]",
O=C(COC(=O)/C=C/c1ccc(C(F)(F)F)cc1)NC1CC1,,inactive: -8.83%
COc1ccc(C(=O)Nc2ccc(OCC(F)(F)C(F)F)c(C(F)(F)F)c2)cc1OC,"inconclusive: 39.8 µM [activator, single point]",

SMILES,Potency,growth rescue (activation)
CCc1cccc(C)c1NC(=O)CCCSc1nc2ccccc2s1,,inactive: -14.7%
O=CN1Cc2[nH]c3ccccc3c2N(c2ccc(Cl)cc2)C1=O,,inconclusive: 72.1% [activator]
O=C1CC(N2CCOCC2)=NN1c1ccc([N+](=O)[O-])cc1,"inconclusive: 20 µM [activator, partial curve, poor fit]",
O=P(C(=S)Nc1ccccc1Cl)(c1ccccc1)c1ccccc1,"inconclusive: 17.8 µM [activator, partial curve, poor fit]",
Cc1ccc(C)c(NC(=O)N2CCN(C)c3ncccc32)c1,,inactive: -40.7%
COc1cc(CNc2ncnc3c2ncn3[C@H]2CN(Cc3cccc4ccccc34)C[C@@H](CO)O2)cc(OC)c1OC,active: 28.2 µM,
COc1ccc(NC(=O)c2cc(C3CCCCN3C(=O)c3ccc4c(c3)CCO4)on2)c(C)c1 (stereo not drawn),"inconclusive: 50.1 µM [activator, single point]",
CC1=C2N=C(N)N(Cc3ccccc3)C(Cc3ccccc3)C2n2c(=O)n(-c3ccccc3)c(=O)n2C1 (stereo not drawn),"inconclusive: 39.8 µM [activator, single point]",
CC/C(C)=N\Nc1nc(-c2cc3cc(OC)ccc3oc2=O)cs1,"inconclusive: 39.8 µM [activator, partial curve, poor fit]",
CCOc1ccc(CNC(=O)c2cc3c(=O)n(Cc4cccs4)ccc3nc2C)cc1,"inconclusive: 39.8 µM [activator, single point]",
Cc1oc2ccc(O)c(CN(C)Cc3ccccc3)c2c1C(=O)Nc1cccc(Cl)c1C,,inactive: 44.7%
Cc1ccc(N2C(=O)c3ccc(C(=O)N4CCN(c5ccccc5F)CC4)cc3C2=O)cc1,"inconclusive: 35.5 µM [activator, single point]",
C#CCOCCOCCOCCNc1nc(N2CCN(C(=O)CCCCCCCCCCNC(=O)Cn3cc(CCCCCN)nn3)CC2)nc(N2CCN(C(=O)CCCCCCCCCCNC(=O)[C@H]([C@@H](C)CC)n3cc(CCCCN=C(N)N)nn3)CC2)n1,"inconclusive: 14.1 µM [activator, partial curve, poor fit]",
Cc1ccc(C2(C)NC(=O)N(CC(=O)N3CCc4ccccc43)C2=O)cc1 (stereo not drawn),,inactive: -5.81%
Cc1ccc(Cn2cc(S(=O)(=O)c3ccc(C(C)C)cc3)c(=O)c3cc4c(cc32)OCO4)cc1,"inconclusive: 44.7 µM [activator, single point]",
CCc1nc2nc(C)cc(Nc3ccc(Br)cc3F)n2n1,,inactive: -5.39%
COc1ccc(C2=NN(c3nc(-c4ccc(CNC(C)=O)cc4)cs3)C(c3ccco3)C2)cc1 (stereo not drawn),"inconclusive: 22.4 µM [activator, partial curve]",
Cc1ccc(C)c(N2CCN(CCCNC(=O)Cn3cccc3C(=O)c3ccccc3C)CC2)c1,"inconclusive: 35.5 µM [activator, single point]",
COC(=O)[C@]12C[C@H](CC(=O)NCc3ccccc3)C(=O)N(Cc3ccc4c(c3)OCO4)C1=C[C@H](C(C)C)O[C@@H]2C1CC1,"inconclusive: 17.8 µM [activator, partial curve]",
